Measured values taken from publication PMC9848319, “Identification of a new structural family of SGK1 inhibitors as potential neuroprotective agents” (Journal of Enzyme Inhibition and Medicinal Chemistry, 2023).

Assays:
[1] = molecular target: T1, human recombinant SGK1 (Homo sapiens, UniProt O00141); assay: SGK1 inhibition assay (radioactive, 33P-ATP, MRC Unit Dundee); assay type: biochemical; settings: for SGK1 % Inhibition@10 µM: 10 µM compound; for IC50: SGK1
T1 sequence (O00141 60-431): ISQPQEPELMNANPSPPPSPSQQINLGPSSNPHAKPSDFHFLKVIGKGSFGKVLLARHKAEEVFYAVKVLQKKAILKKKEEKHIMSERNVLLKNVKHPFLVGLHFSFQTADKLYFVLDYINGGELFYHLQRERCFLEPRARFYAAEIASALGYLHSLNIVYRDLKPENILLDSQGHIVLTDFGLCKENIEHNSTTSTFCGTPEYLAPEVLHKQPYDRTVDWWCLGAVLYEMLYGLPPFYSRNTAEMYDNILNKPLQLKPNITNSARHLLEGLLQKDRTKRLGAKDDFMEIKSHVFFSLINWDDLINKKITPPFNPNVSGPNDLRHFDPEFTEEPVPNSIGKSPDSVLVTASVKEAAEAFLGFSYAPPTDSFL

[2] = system: SGK1; settings: cited from earlier work
[3] = system: SH-SY5Y cells; assay: Neuroprotection against okadaic acid (AD cellular model), crystal violet; settings: pre-treated 10 µM 1 h, then OA 30 nM 24 h
[4] = system: SH-SY5Y MitoQC cells; assay: Mitophagy assay, MitoQC reporter; settings: OA 10 nM

Row | Compound | SGK1 % Inhibition@10 µM [1] | IC50 ([1]; read-out: IC50) | further results
1 | Oc1cccc(Nc2ncnc3[nH]ccc23)c1 [AEV1.40] | 65.3% | 6.5 µM | –
2 | CCc1c(C(=O)NNC(=O)C(O)c2cc(F)cc(F)c2)ccc(O)c1C (stereo not drawn) [EMD638683] | – | – | IC50 [2]: 3 µM
3 | COC(=O)c1cc(Nc2ncnc3[nH]ccc23)ccc1Br [ERP2.14] | 52.6% | – | IC50 [1]: 6.4 µM; Protection from cell death caused by OA [3]: reduced the cell death caused by OA
4 | CC(=O)c1ccc(Nc2ncnc3[nH]ccc23)cc1 [GMH1.12] | 74.3% | 5.5 µM | –
5 | O=C(O)c1ccc(-c2c[nH]c3ncc(-c4ccccc4)cc23)cc1C1CCCC1 [GSK650394, reference compound] | 92.6% | – | –
6 | O=C1Nc2ccccc2/C1=N/c1ccc(F)cc1 [IGS4.18] | 1% | – | –
7 | O=C1Nc2ccc(F)cc2/C1=N/N1CCCCC1 [LG1.31] | 5% | – | –
8 | C=C1[C@@H](O)[C@@H]2O[C@]3(CC[C@H](/C=C/[C@@H](C)[C@@H]4CC(C)=C[C@@]5(O[C@H](C[C@@](C)(O)C(=O)O)CC[C@H]5O)O4)O3)CC[C@H]2O[C@@H]1[C@@H](O)C[C@H](C)[C@H]1O[C@@]2(CCCCO2)CC[C@H]1C [OA, okadaic acid, reference compound] | – | – | Mitophagy modulation [4]: did not show any mitophagy modulation
9 | OCCNc1nc(NCCc2ccccc2)c2cnn(/C=C\c3ccccc3)c2n1 [SI113] | – | – | IC50 [2]: 0.6 µM
10 | Clc1ccccc1Nc1ncnc2[nH]ccc12 [VNG1.6] | 48% | 5.2 µM | –
11 | Clc1ccc(Nc2ncnc3[nH]ccc23)cc1 [VNG1.7] | 54.0% | 9.3 µM | –
12 | Nc1ccc(Sc2ccc(Nc3ncnc4[nH]ccc34)cc2)cc1 [VNG1.52] | 60.5% | 2.4 µM | –
13 | FC(F)(F)c1cccc(Oc2ccc(Nc3ncnc4[nH]ccc34)cc2)c1 [VNG1.65] | 62.6% | 3.4 µM | –

Like-named read-outs stand apart in the source and are kept apart here.
